pIC50: −log10 of the molar value. By IC50 is meant the dose at which the fit gives 50% viability; where the fit passes the top or lowest dose, that dose stands as a limit. AUC sums up the same curve from the lowest dose to the 256-fold higher top dose: 1 means no effect, lower means more sensitive. For part of these data: A top dose marked as inferred comes from the curve model; the source does not state it.
How the values were obtained:
Test in all cases: Viability of human cancer cell lines after 72 h of drug (GDSC screen)
GSK-650394 = compound: O=C(O)c1ccc(-c2c[nH]c3ncc(-c4ccccc4)cc23)cc1C1CCCC1 [GSK-650394]; conditions: top dose 16 µM; top dose inferred
Experimental: (§1)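 Human cancer cell lines in 384-well plates, medium with 10% serum, drug for 72 h over a 256-fold dose range (nine 2-fold or five 4-fold steps up to the top dose). Adherent lines were fixed and stained with the nucleic acid dye Syto60, suspension lines read with resazurin; signal relative to control wells, capped at 0 and 100%. One two-parameter sigmoid per drug and line, fitted in a mixed model over all curves with the slope shared within a line.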

XAV 939 = compound: Oc1nc(-c2ccc(C(F)(F)F)cc2)nc2c1CSCC2 [XAV 939]; conditions: top dose 5 µM; top dose inferred
Experimental: as §1

Etoposide = compound: COc1cc([C@@H]2c3cc4c(cc3[C@@H](O[C@@H]3O[C@@H]5CO[C@@H](C)O[C@H]5[C@H](O)[C@H]3O)[C@H]3COC(=O)[C@H]23)OCO4)cc(OC)c1O [Etoposide]; conditions: top dose 16 µM
Experimental: as §1

NPK76-II-72-1 = compound: COc1cc(C(=O)NC2CCN(C)CC2)ccc1Nc1ncc2c(n1)N(C1CCCC1)C(C)CC(=O)N2C [NPK76-II-72-1]; conditions: top dose 10.24 µM; top dose inferred
Experimental: as §1

AZD7762 = compound: NC(=O)Nc1cc(-c2cccc(F)c2)sc1C(=O)N[C@H]1CCCNC1 [AZD7762]; conditions: top dose 2 µM
Experimental: as §1

Bexarotene = compound: C=C(c1ccc(C(=O)O)cc1)c1cc2c(cc1C)C(C)(C)CCC2(C)C [Bexarotene]; conditions: top dose 8 µM
Experimental: as §1

BMS-345541 = compound: Cc1ccc2nc(NCCN)c3ncc(C)n3c2c1 [BMS-345541]; conditions: top dose 16 µM
Experimental: as §1

YK 4-279 = compound: COc1ccc(C(=O)CC2(O)C(=O)Nc3c(Cl)ccc(Cl)c32)cc1 [YK 4-279]; conditions: top dose 10 µM
Experimental: as §1

Cell Line | AUC (GSK-650394) | pIC50 (GSK-650394) | AUC (XAV 939) | pIC50 (XAV 939) | AUC (Etoposide) | pIC50 (Etoposide) | AUC (NPK76-II-72-1) | pIC50 (NPK76-II-72-1) | AUC (AZD7762) | pIC50 (AZD7762) | AUC (Bexarotene) | pIC50 (Bexarotene) | AUC (BMS-345541) | pIC50 (BMS-345541) | AUC (YK 4-279) | pIC50 (YK 4-279)
NCI-H2444 (non-small cell lung carcinoma, adherent) | 0.988 | < 4.80 | 0.985 | < 5.30 | 0.988 | < 4.80 | 0.966 | < 4.99 | 0.733 | 6.20 | 0.988 | < 5.10 | 0.984 | < 4.80 | 0.987 | < 5.00
NCI-H2452 (mesothelioma, adherent) | 0.984 | < 4.80 | 0.928 | < 5.30 | 0.979 | < 4.80 | 0.983 | < 4.99 | 0.816 | 5.86 | 0.966 | < 5.10 | 0.984 | < 4.80 | 0.767 | 5.35
NCI-SNU-1 (stomach, suspension) | 0.903 | < 4.80 | 0.978 | < 5.30 | 0.601 | 5.72 | 0.827 | 5.18 | 0.95 | < 5.70 | 0.988 | < 5.10 | 0.666 | 5.53 | 0.974 | < 5.00
NCI-SNU-5 (stomach, suspension) | 0.988 | < 4.80 | 0.981 | < 5.30 | 0.821 | 5.03 | 0.989 | < 4.99 | 0.483 | 6.95 | 0.989 | < 5.10 | 0.935 | < 4.80 | 0.903 | < 5.00
NKM-1 (acute myeloid leukaemia, suspension) | 0.549 | 5.86 | 0.961 | < 5.30 | 0.381 | 6.33 | 0.495 | 6.21 | 0.038 | > 8.11 | 0.867 | 5.12 | 0.587 | 5.76 | 0.603 | 5.92
NMC-G1 (glioma, adherent) | 0.948 | < 4.80 | 0.791 | 5.55 | 0.657 | 5.52 | 0.936 | < 4.99 | 0.798 | 5.92 | 0.909 | < 5.10 | 0.888 | < 4.80 | 0.626 | 5.82
NOS-1 (osteosarcoma, adherent) | 0.811 | 4.96 | 0.959 | < 5.30 | 0.647 | 5.55 | 0.868 | < 4.99 | 0.73 | 6.18 | 0.787 | 5.36 | 0.6 | 5.70 | 0.92 | < 5.00
NTERA-2 cl.D1 (testis, adherent) | 0.596 | 5.74 | 0.934 | < 5.30 | 0.033 | > 7.20 | 0.959 | < 4.99 | 0.853 | 5.81 | 0.882 | < 5.10 | 0.923 | < 4.80 | 0.657 | 5.77
NU-DUL-1 (B-cell lymphoma, suspension) | 0.931 | < 4.80 | 0.987 | < 5.30 | 0.421 | 6.20 | 0.462 | 6.29 | 0.222 | 7.62 | 0.913 | 5.12 | 0.846 | 5.08 | 0.99 | < 5.00
NUGC-4 (stomach, adherent) | 0.872 | 4.82 | 0.974 | < 5.30 | 0.776 | 5.20 | 0.824 | 5.22 | 0.571 | 6.71 | 0.974 | < 5.10 | 0.96 | < 4.80 | 0.707 | 5.62
NY (osteosarcoma, adherent) | 0.959 | < 4.80 | 0.987 | < 5.30 | 0.725 | 5.37 | 0.989 | < 4.99 | 0.588 | 6.66 | 0.886 | < 5.10 | 0.965 | < 4.80 | 0.582 | 5.98
OAW-42 (ovary, adherent) | 0.887 | < 4.80 | 0.852 | 5.36 | 0.769 | 5.18 | 0.961 | < 4.99 | 0.805 | 5.95 | 0.9 | < 5.10 | 0.886 | < 4.80 | 0.737 | 5.50
OCI-AML3 (acute myeloid leukaemia, suspension) | 0.982 | < 4.80 | 0.99 | < 5.30 | 0.772 | 5.27 | 0.623 | 5.88 | 0.817 | 6.04 | 0.981 | < 5.10 | 0.797 | 5.20 | 0.739 | 5.58
OCI-AML5 (acute myeloid leukaemia, suspension) | 0.635 | 5.64 | 0.986 | < 5.30 | 0.499 | 6.00 | 0.714 | 5.62 | 0.504 | 6.89 | 0.52 | 6.25 | 0.643 | 5.62 | 0.758 | 5.49
OCI-M1 (acute myeloid leukaemia, suspension) | 0.929 | 4.80 | 0.991 | < 5.30 | 0.66 | 5.61 | 0.789 | 5.47 | 0.624 | 6.60 | 0.994 | < 5.10 | 0.852 | 5.09 | 0.79 | 5.47
OCUB-M (breast, adherent) | 0.562 | 5.84 | 0.955 | < 5.30 | 0.154 | 6.97 | 0.804 | 5.36 | 0.94 | < 5.70 | 0.602 | 6.04 | 0.878 | 4.90 | 0.673 | 5.75
OE19 (oesophagus, adherent) | 0.846 | 4.85 | 0.962 | < 5.30 | 0.859 | < 4.80 | 0.981 | < 4.99 | 0.829 | 5.83 | 0.92 | < 5.10 | 0.941 | < 4.80 | 0.867 | < 5.00

Cell Line | AUC (GSK-650394) | pIC50 (GSK-650394) | AUC (XAV 939) | pIC50 (XAV 939) | AUC (Etoposide) | pIC50 (Etoposide) | AUC (NPK76-II-72-1) | pIC50 (NPK76-II-72-1) | AUC (AZD7762) | pIC50 (AZD7762) | AUC (Bexarotene) | pIC50 (Bexarotene) | AUC (BMS-345541) | pIC50 (BMS-345541) | AUC (YK 4-279) | pIC50 (YK 4-279)
OE21 (oesophagus, adherent) | 0.859 | < 4.80 | 0.828 | 5.32 | 0.871 | < 4.80 | 0.932 | < 4.99 | 0.446 | 7.07 | 0.889 | < 5.10 | 0.889 | < 4.80 | 0.641 | 5.75
OE33 (oesophagus, adherent) | 0.693 | 5.41 | 0.883 | < 5.30 | 0.721 | 5.32 | 0.973 | < 4.99 | 0.673 | 6.38 | 0.971 | < 5.10 | 0.932 | < 4.80 | 0.915 | < 5.00
OMC-1 (cervix, adherent) | 0.964 | < 4.80 | 0.958 | < 5.30 | 0.88 | < 4.80 | 0.966 | < 4.99 | 0.741 | 6.20 | 0.965 | < 5.10 | 0.915 | < 4.80 | 0.916 | < 5.00
ONS-76 (medulloblastoma, adherent) | 0.759 | 5.22 | 0.966 | < 5.30 | 0.435 | 6.18 | 0.914 | < 4.99 | 0.403 | 7.18 | 0.913 | < 5.10 | 0.872 | < 4.80 | 0.708 | 5.59
OPM-2 (myeloma, suspension) | 0.975 | < 4.80 | 0.992 | < 5.30 | 0.865 | 5.00 | 0.601 | 5.94 | 0.775 | 6.19 | 0.99 | < 5.10 | 0.637 | 5.65 | 0.959 | < 5.00
OS-RC-2 (kidney, adherent) | 0.879 | < 4.80 | 0.94 | < 5.30 | 0.786 | 4.98 | 0.974 | < 4.99 | 0.695 | 6.24 | 0.946 | < 5.10 | 0.857 | < 4.80 | 0.881 | < 5.00
OSC-20 (head and neck, adherent) | 0.73 | 5.28 | 0.955 | < 5.30 | 0.47 | 6.09 | 0.94 | < 4.99 | 0.77 | 6.05 | 0.927 | < 5.10 | 0.915 | < 4.80 | 0.758 | 5.39
OVCAR-4 (ovary, adherent) | 0.859 | < 4.80 | 0.823 | < 5.30 | 0.758 | 5.08 | 0.937 | < 4.99 | 0.605 | 6.55 | 0.913 | < 5.10 | 0.867 | < 4.80 | 0.724 | 5.42
OVCAR-5 (ovary, adherent) | 0.977 | < 4.80 | 0.962 | < 5.30 | 0.568 | 5.80 | 0.841 | 5.03 | 0.561 | 6.72 | 0.977 | < 5.10 | 0.742 | 5.24 | 0.77 | 5.34
OVISE (ovary, adherent) | 0.971 | < 4.80 | 0.905 | < 5.30 | 0.842 | < 4.80 | 0.915 | < 4.99 | 0.529 | 6.81 | 0.961 | < 5.10 | 0.864 | < 4.80 | 0.882 | < 5.00
OVMIU (ovary, adherent) | 0.947 | < 4.80 | 0.811 | 5.45 | 0.817 | 4.92 | 0.914 | < 4.99 | 0.823 | 5.80 | 0.952 | < 5.10 | 0.853 | < 4.80 | 0.709 | 5.55
OVTOKO (ovary, adherent) | 0.903 | < 4.80 | 0.946 | < 5.30 | 0.747 | 5.20 | 0.95 | < 4.99 | 0.502 | 6.90 | 0.895 | < 5.10 | 0.893 | < 4.80 | 0.731 | 5.46
P12-ICHIKAWA (T-cell lymphoblastic leukaemia, suspension) | 0.869 | 5.03 | 0.987 | < 5.30 | 0.339 | 6.40 | 0.63 | 5.87 | 0.686 | 6.44 | 0.987 | < 5.10 | 0.6 | 5.75 | 0.863 | 5.25
P30-OHK (lymphoblastic leukaemia, suspension) | 0.61 | 5.72 | 0.99 | < 5.30 | 0.488 | 6.03 | 0.342 | 6.60 | 0.527 | 6.84 | 0.99 | < 5.10 | 0.85 | 5.04 | 0.687 | 5.73
P31-FUJ (acute myeloid leukaemia, suspension) | 0.995 | < 4.80 | 0.993 | < 5.30 | 0.995 | < 4.80 | 0.986 | < 4.99 | 0.561 | 6.75 | 0.993 | < 5.10 | 0.937 | < 4.80 | 0.711 | 5.68
P32-ISH (Burkitt lymphoma, suspension) | 0.582 | 5.80 | 0.995 | < 5.30 | 0.645 | 5.65 | 0.679 | 5.75 | 0.473 | 6.97 | 0.957 | < 5.10 | 0.897 | 4.95 | 0.443 | 6.34

Source: the supplement of paper PMC4967469
